Laboratory results: PubChem BioAssay AID1030 (National Center for Advancing Translational Sciences (NCATS), 2008)
The whole screen tested about 220,000 compounds, of which about 16,000 (7.3%) were called active. Inconclusive means that the source gave no clear call. Such entries were picked first, then a sample of the others. Calls follow the shape of the dose curve; as a rule, active = well fitted inhibition curve with a large enough effect (not every such curve was filed as active); inconclusive = small, poorly fitted or top-dose-only effect, or another doubt; inactive = no such curve, though single readings can be large or run the other way. No potency is given beside an inconclusive call; the fits are too rough.

target: Aldehyde dehydrogenase 1A1 (Homo sapiens) (UniProt P00352); assay: qHTS Assay for Inhibitors of Aldehyde Dehydrogenase 1 (ALDH1A1); details: Purified ALDH1A1, NADH fluorescence, propionaldehyde substrate; series mostly up to 75.3 µM;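 as to activity, negative = inhibition: plate controls were no enzyme wells and a reference inhibitor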
Potency is read from the fitted curve at half-maximal effect; tags tell the direction and shape of the fitted curve.

Sequence of UniProt P00352 (P00352 whole entry, looked up): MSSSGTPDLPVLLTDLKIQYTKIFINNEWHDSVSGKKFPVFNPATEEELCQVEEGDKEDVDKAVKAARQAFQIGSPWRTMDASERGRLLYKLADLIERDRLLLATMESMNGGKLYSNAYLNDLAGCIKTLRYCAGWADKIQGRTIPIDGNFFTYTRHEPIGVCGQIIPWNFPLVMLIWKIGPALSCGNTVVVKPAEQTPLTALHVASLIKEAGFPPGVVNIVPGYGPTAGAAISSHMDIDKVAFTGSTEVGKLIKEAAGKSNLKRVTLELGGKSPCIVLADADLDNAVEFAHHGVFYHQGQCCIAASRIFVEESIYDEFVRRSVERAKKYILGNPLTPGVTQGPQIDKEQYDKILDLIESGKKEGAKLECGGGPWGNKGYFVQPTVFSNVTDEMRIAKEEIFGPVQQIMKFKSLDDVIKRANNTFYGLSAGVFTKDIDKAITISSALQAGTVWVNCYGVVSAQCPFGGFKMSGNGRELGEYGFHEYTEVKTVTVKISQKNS

| SMILES | Potency | activity, negative = inhibition |
| --- | --- | --- |
| COc1cc2[nH]c3c(Cl)ncnc3c2cc1OC | inconclusive [inhibitor, single point] |  |
| Cc1ccc(C(=O)N2CCN(S(=O)(=O)c3ccccc3[N+](=O)[O-])CC2)o1 | inactive |  |
| COCCOc1nc2c(c(=O)n(C)c(=O)n2C)n1CCc1ccccc1 | inconclusive [inhibitor, partial curve] |  |
| Cc1ccc(C2=NN3C(C2)c2ccccc2OC32C(=O)Nc3ccccc32)cc1 (configuration not stated) | inconclusive [inhibitor, partial curve] |  |
| CNc1cc(N2CCN(S(=O)(=O)N(C)C)CC2)ccc1[N+](=O)[O-] | inactive |  |
| Cc1sc(N)nc1-c1cccs1 | inactive |  |
| O=C(Nc1ccc(NC(=O)c2ccco2)c(Cl)c1)c1ccccc1 | inconclusive [inhibitor, single point] |  |
| CCOC(=O)NC(NC(=S)Nc1ccc(OC)cc1)C(Cl)(Cl)Cl (configuration not stated) | inactive |  |
| O=C(Nc1ccc(NC(=O)C2CCCCC2)nc1)c1cccs1 | inactive |  |
| O=C(O)Cc1csc(NC(=O)c2ccco2)n1 | inconclusive [inhibitor, single point] |  |
| COc1cc([C@H]2[C@@H]3CCCC[C@]3(O)CCN2CC(=O)Nc2ccc(C)cc2C)ccc1O | inconclusive [inhibitor, single point] |  |
| COc1ccc2cc(C(=O)C3CCCN(Cc4ccccn4)C3)ccc2c1 (configuration not stated) | inconclusive [inhibitor, single point] |  |
| CN1CCc2nc(SCCOc3ccccc3)c(C#N)cc2C1 | inconclusive [inhibitor, partial curve] |  |
| CCCCCCCCN[C@@H](C)[C@H](O)c1ccc(SC(C)C)cc1 | inactive |  |
| CCN(CC)C(=S)Sc1c(-c2ccccc2)c2cc(Cl)ccc2[nH]c1=O | inconclusive [inhibitor, single point] |  |
| CC(C)NC(=S)NC(=O)c1ccc(Cl)cc1Cl | inconclusive [inhibitor, single point] |  |
| COc1cccc(NC(=S)/C(=C(\[O-])c2cc(C)n(-c3ccccc3F)c2C)[n+]2ccc(N(C)C)cc2)c1 | inconclusive [inhibitor, single point] |  |
| CCCn1c2ccccc2c2nnc(SCC(=O)Nc3ncccn3)nc21 | active: 7.08 µM |  |
| Cc1nn(Cc2ccccc2)c(C)c1NC(=O)c1cc(-c2cccs2)on1 | inconclusive [inhibitor, single point] |  |
| CC1(C)Cc2c(C#N)c(N3CCOCC3)nc(-c3ccccc3)c2CO1 | inconclusive [inhibitor, single point] |  |
| Cc1cccc(-c2c3c(=O)n(C)c(=O)n(C)c3cn2-c2ccccc2O)c1 | inconclusive [inhibitor, partial curve] |  |
| CC1(C)CC(=O)c2cnc(NCc3ccco3)nc2C1 | inconclusive [inhibitor, single point] |  |
| CCOc1cc(CO)cc(Br)c1OCC(N)=O | inactive |  |
| CC(C)(C)NC(=O)C(c1ccc(F)cc1)N(CCc1ccccc1)C(=O)c1ccn[nH]1 (configuration not stated) | inactive |  |

| SMILES | Potency | activity, negative = inhibition |
| --- | --- | --- |
| O=C(CNc1ccccc1)Nc1ccc(F)cc1 | active: 14.1 µM |  |
| NS(=O)(=O)c1ccc(N2N=C(c3ccccc3)CC2c2cccc(F)c2)cc1 (configuration not stated) | inconclusive [inhibitor, partial curve] |  |
| COc1ccc(C2=CC(=O)CC(c3ccc(OC)cc3)C2)cc1 (configuration not stated) | inconclusive [inhibitor, single point] |  |
| CC(=O)Nc1ccc(S(=O)(=O)N2CCN(Cc3ccccn3)CC2)cc1 | inconclusive [inhibitor, partial curve] |  |
| Cn1nc(-c2ccc(C(=O)Nc3ccc(F)cc3)cc2)c2ccccc2c1=O | inconclusive [inhibitor, single point] |  |
| COc1cccc(C2c3[nH]c4ccccc4c3CCN2Cc2cccc(C)n2)c1 (configuration not stated) | inactive |  |
| Cc1ccc2nc(SCc3nnc(-c4ccccc4[N+](=O)[O-])o3)c(C#N)cc2c1 | inconclusive [inhibitor, partial curve] |  |
| CCOCCN1CCN(C(=O)CN2CCCC2=O)CC1 | inactive |  |
| Cc1cc(N2CCN(C)CC2)nc2ccc(NC(=O)CCC(=O)NCc3ccco3)cc12 | inconclusive [inhibitor, partial curve] |  |
| Cc1ccc(C2=NC3(CCCCC3)NC2=S)cc1 | inactive |  |
| Cn1c(=O)c2cn3c(c2n(C)c1=O)C(c1ccccc1)CC(c1ccccc1)=N3 (configuration not stated) | inconclusive [inhibitor, single point] |  |
| COc1cccc(CC(=O)N2CCc3nc(-c4ccccc4)c4c(c3C2)CO[C@@H](C)C4)c1 |  | inactive: 11.7% [at 13.5 µM] |
| CCC1/C(=N\O)CC(c2ccco2)NC1c1ccco1 (configuration not stated) | inconclusive [inhibitor, full curve] |  |
| CC(=O)OCCCN1c2ccccc2Nc2nnc(-c3ccccc3)cc21 | inactive |  |
| CCc1ccccc1NC(=O)Nc1cccn(Cc2ccccc2F)c1=O | inconclusive [inhibitor, single point] |  |
| CC(C)C(=O)c1c(C(C)C)nn2ccccc12 | inactive |  |
| CCC1CCCCN1C(=S)NC(=O)c1ccc(F)c(S(=O)(=O)N2CCOCC2)c1 (configuration not stated) | inconclusive [inhibitor, single point] |  |
| CCN1C(=O)c2cccc3c(NC(=O)c4ccc(OC)c(OC)c4)ccc1c23 | active: 4.47 µM |  |
| O=C(c1cccc([N+](=O)[O-])c1)N1CCN(C/C=C/c2ccccc2)CC1 | inconclusive [inhibitor, single point] |  |
| COCCNC(=O)C(c1ccc(C)o1)N(C(=O)Cn1nnc2ccccc21)c1ccccc1 (configuration not stated) | inactive |  |
| O=C(C1=C[C@@H](C2CC2)C[C@@H](OCCCCO)O1)N1CCN(Cc2ccccc2)CC1 | inconclusive [inhibitor, single point] |  |
| C=CCN1C(=O)C(O)(CC(=O)c2ccco2)c2cc(Br)ccc21 (configuration not stated) | active: 7.94 µM |  |
| CCC(NC(=O)Nc1ncccc1C)(C(F)(F)F)C(F)(F)F | inactive |  |
